# Assay results as given in PubChem BioAssay (Tox21).
# The shares of active, inactive and inconclusive entries below differ from those in the screen. For some assays here: No potency is given beside an inconclusive call; the fits are too rough. Calls of active or inactive are those of the source. Unless noted, calls come from the whole dose curve; as a rule, active = well fitted curve in the direction sought with a large enough effect in the repeat runs; inconclusive = weak or mixed curves; inactive = no such curve, though single readings can be large; an effect the other way counts as inactive or inconclusive.
# Tests used:
# [1] = qHTS assay for small molecule agonists of the p53 signaling pathway - cell viability (AID 651633; calls by dose curve; note: potency is the fitted concentration of half-maximal effect; nearly all actives have a fitted effect of over 30% in size)
# Procedure, shortened: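 p53RE-bla cells were treated with compound for 16 hours at 37 C. Cytotoxicity was then measured as CellTiter-Glo luminescence after 30 min at room temperature.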
# [2] = qHTS assay to identify small molecule HDAC inhibitors (AID 1259364); note: nearly all actives have a fitted effect of over 45% in size; note: potency is the fitted concentration of half-maximal effect
# Procedure, shortened: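 Luminescence from a cell-permeant luminogenic class I/II HDAC substrate reports endogenous deacetylase activity in intact HCT-116 cells treated with compounds for 2 h.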
# [3] = qHTS RealTime-Glo MT Cell Viability Assay in HepG2 cells - 0 hour (AID 1224889); note: % is set by controls: 0 for no effect and ±100 for the full control effect; nearly all actives have a fitted effect of over 50% in size
# Procedure, shortened: (§1)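 qHTS, HepG2, 600 cells/well, RealTime-Glo (NanoLuc + prosubstrate) added with cells; 5 h preincubation; DMSO compound addition; 37 C; luminescence at 0/8/16/24/32/40 h.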
# [4] = qHTS RealTime-Glo MT Cell Viability Assay in HepG2 cells - 24 hour (AID 1224867); note: nearly all actives have a fitted effect of over 50% in size; note: potency is the fitted concentration of half-maximal effect; for activity change, negative = cytotoxicity: % is set by controls: 0 for no effect and ±100 for the full control effect
# Procedure, shortened: as §1
# [5] = molecular target: Androgen receptor (Homo sapiens) (UniProt P10275); assay: qHTS assay to identify small molecule antagonists of the androgen receptor (AR) signaling pathway using the MDA cell line (AID 743042; note: % is set by controls: 0 for no effect and ±100 for the full control effect; nearly all actives have a fitted effect of over 55% in size)
# Chain of UniProt P10275 (P10275 whole entry, looked up): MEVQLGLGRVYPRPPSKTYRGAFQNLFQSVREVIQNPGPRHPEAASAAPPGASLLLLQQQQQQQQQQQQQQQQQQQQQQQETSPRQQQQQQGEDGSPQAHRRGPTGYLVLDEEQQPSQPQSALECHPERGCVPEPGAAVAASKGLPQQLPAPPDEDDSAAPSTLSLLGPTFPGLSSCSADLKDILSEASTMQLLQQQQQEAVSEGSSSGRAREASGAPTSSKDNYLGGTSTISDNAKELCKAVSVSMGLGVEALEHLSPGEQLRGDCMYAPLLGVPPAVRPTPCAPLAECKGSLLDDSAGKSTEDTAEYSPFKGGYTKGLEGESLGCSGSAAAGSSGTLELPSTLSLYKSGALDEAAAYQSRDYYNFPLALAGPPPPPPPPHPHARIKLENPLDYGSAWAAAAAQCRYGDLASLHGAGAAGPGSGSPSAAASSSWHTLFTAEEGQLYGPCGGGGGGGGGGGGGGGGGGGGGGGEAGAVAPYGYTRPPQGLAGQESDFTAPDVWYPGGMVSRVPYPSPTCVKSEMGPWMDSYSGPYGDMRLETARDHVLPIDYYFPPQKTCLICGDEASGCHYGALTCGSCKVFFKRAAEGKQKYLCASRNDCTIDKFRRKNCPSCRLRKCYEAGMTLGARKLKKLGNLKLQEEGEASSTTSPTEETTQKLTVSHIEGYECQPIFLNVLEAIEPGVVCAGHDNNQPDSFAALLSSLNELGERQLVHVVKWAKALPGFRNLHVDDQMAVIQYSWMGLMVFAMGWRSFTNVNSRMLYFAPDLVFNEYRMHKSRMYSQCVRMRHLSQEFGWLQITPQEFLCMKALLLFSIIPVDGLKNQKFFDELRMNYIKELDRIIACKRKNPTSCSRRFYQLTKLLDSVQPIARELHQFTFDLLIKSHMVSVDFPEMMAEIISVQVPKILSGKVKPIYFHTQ
# Procedure, shortened: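 MDA-kb2 breast carcinoma cells carrying MMTV-luciferase (AR/GR responsive) were co-treated with compounds and the agonist R1881 for 16 h at 37C. Inhibition read as ONE-Glo luminescence; CellTiter-Fluor fluorescence measured in parallel for cytotoxicity.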
# [6] = molecular target: Androgen receptor (Homo sapiens) (UniProt P10275); assay: qHTS assay to identify small molecule antagonists of the androgen receptor (AR) signaling pathway using the MDA cell line in the presence of 0.5 nM R1881 (AID 1259243); note: % is set by controls: 0 for no effect and ±100 for the full control effect; nearly all actives have a fitted effect of over 50% in size
# Procedure, shortened: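 Luciferase luminescence is the read-out: compounds are tested for suppressing 0.5 nM R1881-driven MMTV reporter activity in MDA-kb2 cells after 16 hr at 37C.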
# [7] = qHTS assay to test for compound auto fluorescence at 460 nm (blue) in HepG2 cell free culture (AID 720685); note: % is set by controls: 0 for no effect and ±100 for the full control effect
# Procedure, shortened: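 Compound (23 nL) or DMSO pinned into cell-free MEM with 10% FBS; blue fluorescence read at 405/460 nm excitation/emission, expressed as auto-fluorescence equivalency to triamterene.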
# [8] = qHTS assay to identify small molecule agonists of the estrogen related receptor (ERR) signaling pathway from Tox21 library (AID 1224849; calls by dose curve; note: % is set by controls: 0 for no effect and ±100 for the full control effect; nearly all actives have a fitted effect of over 15% in size); details: ERR reporter cell line, ONE-Glo luciferase, 18 h; at 92.4 µM (top of the series) unless noted
# Procedure, shortened: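 ERR cells, 6 h pre-incubation 37 C/5% CO2; cpd in DMSO pinned; 18 h 37 C; ONE-Glo added, 30 min RT; luminescence read. Agonist mode, qHTS.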
# [9] = qHTS assay to identify small molecule agonists of the sonic hedgehog signaling (Shh) pathway (AID 1259368; calls by dose curve; note: potency is the fitted concentration of half-maximal effect; nearly all actives have a fitted effect of over 15% in size)
# Procedure, shortened: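 3T3Gli1-Luc (NIH/3T3 clone, stable Gli1-Luc); 4 hr pre-incubation, then cpd in DMSO 24 hr, 37 C/5% CO2; luciferase reagent 30 min RT; luminescence.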
# [10] = molecular target: Thyrotropin-releasing hormone receptor (Homo sapiens) (UniProt P34981); assay: qHTS assay to identify small molecule antagonists of the thyrotropin-releasing hormone receptor (TRHR) signaling pathway (AID 1346877; active = well fitted inhibition curve with a large enough effect in the repeat runs, not every such curve was filed as active; inconclusive = weak or mixed curves; note: potency is the fitted concentration of half-maximal effect)
# Chain of UniProt P34981 (P34981 whole entry, looked up): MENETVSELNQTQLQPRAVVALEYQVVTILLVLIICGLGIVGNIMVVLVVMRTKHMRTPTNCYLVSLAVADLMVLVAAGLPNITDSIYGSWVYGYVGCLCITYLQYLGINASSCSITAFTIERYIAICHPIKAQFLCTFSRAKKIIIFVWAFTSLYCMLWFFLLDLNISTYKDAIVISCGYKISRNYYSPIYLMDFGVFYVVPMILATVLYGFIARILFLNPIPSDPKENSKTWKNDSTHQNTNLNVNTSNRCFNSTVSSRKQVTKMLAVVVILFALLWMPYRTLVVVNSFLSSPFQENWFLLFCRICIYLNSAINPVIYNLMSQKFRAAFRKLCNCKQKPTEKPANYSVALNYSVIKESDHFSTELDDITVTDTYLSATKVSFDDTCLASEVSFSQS
# Procedure, shortened: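 Intracellular calcium fluorescence, read kinetically every second over 3 min, reports TRH-evoked signalling in HEK293 cells carrying TRHR. Test compounds were added 5 min ahead of a 1 nM TRH challenge.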
# [11] = qHTS assay to identify small molecule antagonists of the estrogen related receptor (ERR) signaling pathway from Tox21 library (AID 1224848); note: % is set by controls: 0 for no effect and ±100 for the full control effect; nearly all actives have a fitted effect of over 50% in size
# Procedure, shortened: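 ERR reporter cell line (from NTP) seeded 2,000 cells/well, rested 6 h at 37 C/5% CO2, then pin-dosed with compounds in DMSO. After 18 h at 37 C, ONE-Glo added; luminescence read after 30 min at room temperature.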
# [12] = molecular target: Nuclear receptor subfamily 1 group I member 2 (Homo sapiens) (UniProt O75469); assay: CYP3A4 induction through human pregnane X receptor (PXR) by small molecules, qHTS assay (AID 1346984); details: DPX-2 HepG2 PXR, CYP3A4-luciferin luminescence, 24 h; activation: at 46.1 µM (top of the series) unless noted; note: nearly all actives have a fitted effect of over 40% in size; note: potency is the fitted concentration of half-maximal effect
# Procedure, shortened: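 Luminescence readout: luciferase signal after One-Glo (30 min, room temperature), following 3 h at 37C with 3uM final Luciferin-IPA P450 substrate. Cells were DPX-2 (HepG2, PXR/CYP3A4-luc co-transfected) dosed for 24 h.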
# [13] = qHTS assay for small molecule activators of the heat shock response signaling pathway - cell viability counter screen (AID 743209); details: HSE-bla HeLa viability, CellTiter-Glo luminescence, 5 h; activity change, negative = cytotoxicity: at 62.6 µM (top of the series) unless noted
# Procedure, shortened: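 Luminescence from CellTiter-Glo, added after the beta-lactamase FRET read, gave the viability signal. Cells were HSE-bla HeLa treated with DMSO-dissolved compounds for 5 h at 37 C following overnight plating.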
# [14] = qHTS RealTime-Glo MT Cell Viability Assay in HepG2 cells - 8 hour (AID 1224873); note: % is set by controls: 0 for no effect and ±100 for the full control effect; nearly all actives have a fitted effect of over 55% in size
# Procedure, shortened: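 HepG2 cells (600/well) mixed with RealTime-Glo MT reagent, settled 5 h at 37 C/5% CO2 before compound addition. Nonlytic NanoLuc luminescence from viable-cell prosubstrate reduction read repeatedly during 40 h treatment at 37 C.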
# [15] = molecular target: Androgen receptor (Homo sapiens) (UniProt P10275); assay: qHTS assay to identify small molecule agonists of the androgen receptor (AR) signaling pathway in the presence of an antagonist (AID 1259381; calls by dose curve; note: % is set by controls: 0 for no effect and ±100 for the full control effect; nearly all actives have a fitted effect of over 15% in size)
# Procedure, shortened: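 MDA-kb2 cells, 3,000/well, rested 5hr at 37C/0% CO2 → nilutamide 3.0uM final or buffer → compounds, 15 conc. → 16hr at 37C → ONE-Glo, 30min RT → luminescence.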
# [16] = qHTS assay to identify small molecule agonists of the androgen receptor (AR) signaling pathway in the presence of an antagonist - cell viability counter screen (AID 1259379);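 note: MDA-kb2 human breast cancer cells carrying an MMTV luciferase reporter; % is set by controls: 0 for no effect and ±100 for the full control effect; nearly all actives have a fitted effect of over 25% in size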
# Procedure, shortened: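 Cells: MDA-kb2 (MMTV-luc, AR and GR elements), 3,000/well, 5 hr settle. Added: nilutamide 3.0uM final, then compounds (15 conc.). Incubation: 16 hr, 37C, no CO2. Read-out: CellTiter-Fluor, 1 hr, fluorescence.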
# [17] = Caspase-3/7 induction in HepG2 cells by small molecules, qHTS assay (AID 1346978); note: potency is the fitted concentration of half-maximal effect; nearly all actives have a fitted effect of over 15% in size
# Procedure, shortened: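 Wild-type HepG2 cells, 2,000/well, settled 5 hr at 37 C and 5% CO2, then compound-treated for 17 hr; caspase-3/7 activity read by luminescent Caspase-Glo 3/7 after 30 min at room temperature.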
# [18] = molecular target: Nuclear receptor subfamily 1 group I member 2 (Rattus norvegicus) (UniProt Q9R1A7); assay: Rat pregnane X receptor (rPXR) activation by small molecules, qHTS assay (AID 1346983); details: rPXR luciferase reporter cells, One-Glo luminescence, 24 h; max activation: active compounds read high; note: nearly all actives have a fitted effect of over 20% in size; note: potency is the fitted concentration of half-maximal effect
# Chain of UniProt Q9R1A7 (Q9R1A7 whole entry, looked up): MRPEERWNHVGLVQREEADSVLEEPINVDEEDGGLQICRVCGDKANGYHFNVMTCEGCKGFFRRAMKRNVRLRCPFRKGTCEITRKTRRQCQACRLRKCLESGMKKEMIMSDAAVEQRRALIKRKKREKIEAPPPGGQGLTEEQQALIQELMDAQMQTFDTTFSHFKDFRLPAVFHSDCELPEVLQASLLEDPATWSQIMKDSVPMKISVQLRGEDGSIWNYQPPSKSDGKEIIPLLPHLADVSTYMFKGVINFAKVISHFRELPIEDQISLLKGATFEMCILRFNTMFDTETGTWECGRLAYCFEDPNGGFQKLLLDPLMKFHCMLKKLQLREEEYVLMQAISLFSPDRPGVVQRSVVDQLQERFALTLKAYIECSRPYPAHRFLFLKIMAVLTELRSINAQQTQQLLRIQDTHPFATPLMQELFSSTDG
# Procedure, shortened: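 Cell-based rPXR activation assay: rPXR cells, 2,000 per well, rested 5hr at 37 C, then exposed to compounds in DMSO for 24 hr at 37 C. Luciferase activity read by One-Glo luminescence after 30 min at room temperature.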
# [19] = qHTS assay to test for compound auto fluorescence at 460 nm (blue) in HEK293 cell free culture (AID 720681); note: % is set by controls: 0 for no effect and ±100 for the full control effect
# Procedure, shortened: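 Compounds were added to cell-free DMEM with 10% FBS and fluorescence read directly. The blue channel used 405 nm excitation and 460 nm emission, with triamterene as the reference fluorophore.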
# [20] = qHTS assay to identify small molecule phospholipidosis (PLD) inducers (AID 1259344; active = well fitted curve in the direction sought with a large enough effect; inconclusive = small, poorly fitted or top-dose-only effect, or another doubt; inactive = no such curve, though single readings can be large; an effect the other way counts as inactive or inconclusive; note: % is set by controls: 0 for no effect and ±100 for the full control effect); details: HepG2 phospholipidosis, LipidTOX Red imaging, 24 h; PLD induction: at 38.3 µM (top of the series) unless noted
# Procedure, shortened: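 HepG2 cells, 900/well, treated with compound plus LipidTOX Red for 24 h at 37 C; amiodarone positive and DMSO negative controls. Fixed with paraformaldehyde/Hoechst, then high-content imaging scored LipidTOX pit count and integrated intensity per well and per cell.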
# Tags give direction and shape of the fitted curve.
smiles,measurement,setting,value
CCCCCOC(=O)COc1cc(N2C(=O)C3=C(CCCC3)C2=O)c(F)cc1Cl,Potency,[1],"inconclusive [cytotoxic, single point]"
CC(C)CCCCCCOC(=O)c1ccc(C(=O)OCCCCCCC(C)C)c(C(=O)OCCCCCCC(C)C)c1,Potency,[2],inactive
CCN(C=O)CC,Potency,[3],inactive
CC(C)(C)C(=O)/C=C/c1ccc(Cl)cc1,Potency,[4],inactive
O=c1[nH]c(=O)c2ccccc2o1,Potency,[5],inactive
same,Potency,[6],inactive
CN(C)N=Nc1ccccc1,Potency,[7],inactive
COc1ccc(C(=O)c2ccc(C)cc2)c(O)c1,"activity change, positive = activation",[8],active: 16.4%
same,Potency,[2],"inconclusive [inhibitor, partial curve]"
same,Potency,[9],"inconclusive [activator, partial curve]"
NS(=O)(=O)c1ccc(Cl)c(S(N)(=O)=O)c1,Potency,[10],"inconclusive [inhibitor, single point]"
Cc1cccc(Nc2ccncc2S(=O)(=O)NC(=O)NC(C)C)c1,Potency,[11],inactive
same,Potency,[12],"inconclusive [activator, single point]"
C=CC1CC2C=CC1C2 (stereo not drawn),Potency,[13],inactive
same,Potency,[2],inactive
CCCn1cc[n+](C)c1C,Potency,[4],"inconclusive [falling, single point]"
COc1cccc(Br)c1,Potency,[5],inactive
CCN(CC)CCN,Potency,[13],inactive
same,Potency,[14],inactive
CC(C)(O)c1ccccc1,"activity change, positive = activation",[8],inconclusive: 12.4%
CC12CCCC=C1C(=O)OC2=O (stereo not drawn),Potency,[5],inactive
CC(C)CCCCCCN,Potency,[15],inactive
CCOc1ccc(NC(N)=O)cc1,Potency,[4],inactive
CCCC[C@H]1CN(CC2CCOCC2)C(=O)OC12CCN(C1(C)CCN(C(=O)c3c(C)ncnc3C)CC1)CC2,Potency,[11],inactive
CCCCN(CCCC)CCCC,Potency,[16],inactive
CC(=O)O[C@@]12CO[C@@H]1C[C@H](O)[C@@]1(C)C(=O)[C@H](O)C3=C(C)[C@@H](OC(=O)[C@H](O)[C@@H](NC(=O)OC(C)(C)C)c4ccccc4)C[C@@](O)([C@@H](OC(=O)c4ccccc4)[C@H]21)C3(C)C,Potency,[17],inconclusive [activator]
same,Potency,[18],"inconclusive [activator, partial curve, poor fit]"
CC(C)(C)NC[C@H](O)COc1cccc2c1CCCC2=O,Potency,[13],inactive
same,max activation,[18],inactive: 0.088%
N#CSCC(=O)O,Potency,[11],inactive
CCCCCCCC(=O)O,Potency,[19],inactive
same,Potency,[16],inactive
CCOC(=O)Nc1ccc2c(c1)N(C(=O)CCN1CCOCC1)c1ccccc1S2,Potency,[18],"inconclusive [activator, single point]"
same,Potency,[12],"inconclusive [activator, full curve, poor fit]"
NC(=O)c1cc[n+](CC2=C(C(=O)[O-])N3C(=O)[C@@H](NC(=O)Cc4cccs4)[C@H]3SC2)cc1,Potency,[12],inactive
C=CC(C)=CCC=C(C)C,Potency,[3],inactive
CC(=O)Nc1ccn(C2COC(COC(=O)c3ccccc3)O2)c(=O)n1 (stereo not drawn),PLD induction,[20],inactive: 1.43% [at 1.53 µM]
CCCC[O][Al]([O]CCCC)[O]CCCC,Potency,[16],inactive
